Hit rate of the full screen: of about 350,000 compounds, about 9,900 (2.8%) were called active. Inconclusive results, whose numbers are uncertain, are shown with a selection of clear calls. Calls come from the whole dose curve; as a rule, active = well fitted activation curve with a large enough effect; inconclusive = small, poorly fitted or top-dose-only effect; inactive = no such curve, though single readings can be large or run the other way. Potencies of inconclusive entries are left out as doubtful fits.
Experiment: A quantitative high throughput screen for small molecules that induce DNA re-replication in MCF 10a normal breast cells. For activity, positive = re-replication: % of control where 0% means no effect. Note: nearly all actives have a fitted effect of over 50% in size.
Settings: MCF 10A DNA re-replication, Hoechst nuclear intensity, 48 h; activity, positive = re-replication: at 46.1 µM (top of the series)
Potency is the fitted concentration of half-maximal effect; tags give direction and shape of the fitted curve.

Row | SMILES | Potency | activity, positive = re-replication
1 | Cc1cccc(CN2C(=O)NC(c3ccccc3)(c3ccccc3)C2=O)c1 | inconclusive [activator, single point] | 
2 | CCOP(=O)(c1ccccc1)c1nc(-c2ccccc2Cl)oc1N1CCCCC1 (stereo unspecified) | inconclusive [activator, single point] | 
3 | Cc1cccc(C)c1NC(=O)C1c2ccccc2Oc2ccccc21 | inactive | 
4 | O=C(CN1C2=NCCN2c2ccccc21)c1ccc2c(c1)OCO2 |  | inconclusive: -51.3% [activator]
5 | O=C(c1cccc(C(=O)N(c2ccccn2)C2CCCCC2)c1)N(c1ccccn1)C1CCCCC1 | inactive | 
6 | O=C(Nc1ccc(N2CCOCC2)cc1)c1ccc2ncsc2c1 | inactive | 
7 | O=C(c1cccc(S(=O)(=O)N2CCc3ccccc32)c1)N1CCc2ccccc2C1 | inactive | 
8 | CN(Cc1ccccc1OCCO)CC1CCCN(CCc2ccc(Cl)cc2)C1 (stereo unspecified) | inconclusive [activator, single point] | 
9 | COc1ccccc1NC(=O)c1cc2c(CO)cnc(C)c2oc1=Nc1cc(OC)c(OC)c(OC)c1 | inactive | 
10 | N#Cc1nc(COc2ccc(-c3ccccc3)cc2)oc1NCc1cccnc1 | active: 7.94 µM | 
11 | Cc1cc(Cl)ccc1OC(C)C(=O)NN=C1CCCCCC1 (stereo unspecified) | inactive | 
12 | COc1ccc(-c2csc(NS(=O)(=O)c3ccc([N+](=O)[O-])cc3)n2)cc1 | inconclusive [activator, partial curve, poor fit] | 
13 | O=C(CS(=O)(=O)c1ccccc1)N1CCc2ccccc21 | inconclusive [activator, single point] | 
14 | Cc1ccc(S(=O)(=O)N2CCCCC2)cc1NC(=O)Cn1ncc(Cl)c(Cl)c1=O | inconclusive [activator, single point] | 
15 | C=CCn1c(SCC(=O)NCCO)nc2sc(C)c(C)c2c1=O | inconclusive [activator, partial curve, poor fit] | 
16 | COc1ccc(NC(=S)N2CCCN(Cc3cccc(Cl)c3)C2)cc1 | inconclusive [activator, partial curve, poor fit] | 
17 | CCC1Nc2ncnc(N3CCCCC3)c2N(Cc2ccc(Cl)cc2)C1=O (stereo unspecified) | inconclusive [activator, partial curve, poor fit] | 
18 | CN1C(=S)N(c2cccnc2)C(=O)/C1=C\c1ccc(C(C)(C)C)cc1 | inconclusive [activator, single point] | 
19 | CCN1C(=O)c2ccc(C(=O)NCc3ccco3)cc2C1=O | inactive | 
20 | COc1cc(-c2nc(-c3ccc4c(c3)-c3ccccc3S4(=O)=O)c(-c3ccccc3)[nH]2)cc(OC)c1OC | inconclusive [activator, full curve] | 
21 | COc1cc(/C(O)=C(\C#N)c2nc3ccccc3[nH]2)cc(OC)c1OC | active: 14.6 µM | 
22 | N=C1S/C(=C\c2ccco2)C(=O)N1c1nccs1 | inconclusive [activator, single point] | 
23 | COc1ccc(C(=O)NCCNc2nc3ccc(C)cc3cc2C#N)cc1OC | inconclusive [activator, full curve, poor fit] | 

Row | SMILES | Potency | activity, positive = re-replication
24 | O=C1NC(c2ccc(-c3ccccc3[N+](=O)[O-])o2)C(C(=O)c2ccccc2)C(O)(C(F)(F)F)N1 (stereo unspecified) | inconclusive [activator, single point] | 
25 | Cc1cccc(NC(=O)C2CCCN(S(=O)(=O)c3cccc4nsnc34)C2)c1 (stereo unspecified) | active: 14.6 µM | 
26 | COc1ccc(NC(=O)CSC2=NCCN2)cc1 | inconclusive [activator, single point] | 
27 | CC(=O)Nc1ccc2nc(CN3CCN(CC(C)C)C(CCO)C3)ccc2c1 (stereo unspecified) | inactive | 
28 | Cc1cc(=O)cc(C)n1-c1ccccc1Br | inactive | 
29 | CCCN(CC(=O)Nc1ccccc1C)C(=O)COc1c(C)cccc1C | inactive | 
30 | Cc1sc(NC(=O)c2ccco2)c(C(=O)c2ccc(Cl)cc2)c1C | inconclusive [activator, partial curve, poor fit] | 
31 | CC(NC(=O)/C=C/c1ccco1)c1nc2ccccc2n1Cc1cccc(Cl)c1 (stereo unspecified) | inconclusive [activator, single point] | 
32 | CCOC(=O)C1=C(NC(=S)NC(=O)c2ccccc2)c2ccccc2CC1(C)CC (stereo unspecified) | active: 13 µM | 
33 | COc1ccccc1N(CC(O)COc1ccccc1C)S(=O)(=O)c1ccccc1 (stereo unspecified) | inconclusive [activator, single point] | 
34 | COc1ccccc1C1CC(c2c(-c3ccccc3)c3cc(Cl)ccc3[nH]c2=O)=NN1S(C)(=O)=O (stereo unspecified) | inconclusive [activator, single point] | 
35 | CCOc1ccc(NC(=S)NN2CCN(C)CC2)cc1 | inactive | 
36 | Cc1cnc(C(=O)Nc2ccc(N3CCN(C(=O)OC(C)(C)C)CC3)cc2)cn1 | inconclusive [activator, full curve, poor fit] | 
37 | CN(C)CCn1nnc2c(=O)oc3ccccc3c21 | inactive | 
38 | CCC1(C)Cc2ccccc2-c2nc(-c3ccccc3)oc(=O)c21 (stereo unspecified) | inconclusive [activator, partial curve] | 
39 | CC1CN(Cc2cc(=O)oc3cc(O)ccc23)CC(C)O1 (stereo unspecified) | inactive | 
40 | O=C1/C(=C/c2ccco2)N=C(N2CCCCC2)N1c1ccccc1 | inconclusive [activator, single point] | 
41 | CCCCCC(=O)NC(=S)NC1C2CC3CC(C2)CC1C3 (stereo unspecified) | inconclusive [activator, single point] | 
42 | CCOc1ccc(CCNC(=O)CSC(=S)N2CCCC2)cc1OCC | inactive | 
43 | Cc1ccnc(NS(=O)(=O)c2cc([N+](=O)[O-])ccc2C)c1 | inactive | 
44 | O=C(CC(n1cncn1)C(Cl)(Cl)Cl)c1ccc([N+](=O)[O-])cc1 (stereo unspecified) | inconclusive [activator, single point] | 
45 | Cc1ccc(-n2nc(-c3cccs3)cc2C(=O)NCC2CCCO2)c(C)c1 (stereo unspecified) | inconclusive [activator, partial curve, poor fit] | 
46 | CC1Cc2nc(SCC(=O)N3CCCc4ccccc43)n(C)c(=O)c2S1 (stereo unspecified) | inactive | 

— PubChem BioAssay AID624296 (National Center for Advancing Translational Sciences (NCATS), 2012)
